# Reference: the antibiotic and cytotoxicity screens of Wong et al. (2023)
# Some of the results follow.
# Experiments:
# HSkMC = human skeletal muscle cells; assay: cytotoxicity call (relative viability < 0.9); details: 10 µM
# HepG2 = assay: cytotoxicity call (relative viability < 0.9); details: 10 µM
# S. aureus RN4220 = assay: growth inhibition call (relative growth <= 0.2); details: 50 µM
SMILES,cytotoxicity call (HSkMC),cytotoxicity call (HepG2),growth inhibition call (S. aureus RN4220)
COc1ccc(S(=O)(=O)Nc2ccc3c(c2)CC(=O)N([C@H](C)CO)C[C@H](C)[C@@H](CN(C)S(=O)(=O)c2c(C)noc2C)O3)cc1,inactive,inactive,inactive
COc1ccc(S(=O)(=O)Nc2ccc3c(c2)C(=O)N([C@@H](C)CO)C[C@@H](C)[C@@H](CN(C)S(=O)(=O)c2cn(C)cn2)OCCCC[C@H](C)O3)cc1,inactive,inactive,inactive
C[C@H]1CN([C@@H](C)CO)C(=O)c2cc(NC(=O)CCCN(C)C)ccc2O[C@H]1CN(C)Cc1ccc2c(c1)OCO2,inactive,inactive,inactive
CCOc1nc2c(N)ncnc2n1CC,inactive,inactive,inactive
CC(=O)N1CC(=O)N(c2cnn(C)c2)C[C@]12CCN(C(=O)N(C)C)C2,inactive,inactive,inactive
C[C@@H]1CN([C@H](C)CO)S(=O)(=O)c2ccc(C#Cc3ccc(F)cc3)cc2O[C@@H]1CN(C)C(=O)CN(C)C,inactive,inactive,inactive
O=C1O[C@@H](c2ccccc2)[C@@H](c2ccccc2)N2[C@@H](c3ccc(OCCO)cc3)[C@]3(C(=O)Nc4ccccc43)[C@@H](C(=O)NC[C@H](O)c3ccccc3)[C@H]12,inactive,inactive,inactive
C[C@H]1CCCCO[C@H](CN(C)C(=O)Nc2cccc3ccccc23)[C@@H](C)CN([C@@H](C)CO)C(=O)c2cc(NC(=O)c3ccccc3)ccc2O1,inactive,inactive,inactive
C[C@H](CO)N1C[C@H](C)[C@H](CN(C)Cc2ccc(C(=O)O)cc2)Oc2ccc(NC(=O)C3CC3)cc2C1=O,inactive,inactive,inactive
O=C(NCc1ccccc1)[C@@H](c1ccco1)N(Cc1ccc(Br)cc1)C(=O)Cc1ccccc1,inactive,inactive,inactive
O=c1[nH]cccc1F,inactive,inactive,inactive
O=C(C[C@H]1CC[C@@H]2[C@H](COC[C@@H](O)CN2S(=O)(=O)c2ccccc2)O1)N[C@H]1CCN(Cc2ccccc2)C1,inactive,inactive,inactive
CC(C)CC#Cc1ccc2c(c1)O[C@@H](CN(C)C(=O)Cc1ccncc1)[C@@H](C)CN([C@H](C)CO)S2(=O)=O,inactive,inactive,inactive
COc1ccc(S(=O)(=O)Nc2ccc3c(c2)C(=O)N([C@@H](C)CO)C[C@@H](C)[C@H](CN(C)C(=O)Nc2ccc4c(c2)OCO4)OCCCC[C@H](C)O3)cc1,inactive,inactive,inactive
COc1ccc(CN(C)C[C@@H]2OCCCC[C@@H](C)Oc3ccc(NS(=O)(=O)c4c(C)noc4C)cc3C(=O)N([C@@H](C)CO)C[C@@H]2C)cc1,inactive,inactive,inactive
C[C@@H]1CN([C@@H](C)CO)C(=O)Cc2cc(NC(=O)NC3CCCCC3)ccc2O[C@@H]1CN(C)Cc1ccc(Cl)c(Cl)c1,inactive,active,inactive
CC1=NCCN1,inactive,inactive,inactive
O=C(C[C@@H]1CC[C@H]2[C@@H](COC[C@@H](O)CN2S(=O)(=O)c2ccc(Cl)cc2)O1)NCCN1CCCC1,inactive,inactive,inactive
Cc1onc(C(=O)O)c1[N+](=O)[O-],inactive,inactive,inactive
C[C@@H]1CN([C@H](C)CO)C(=O)c2cccc(NC(=O)C3CC3)c2O[C@@H]1CN(C)Cc1ccc(Oc2ccccc2)cc1,inactive,inactive,inactive
COc1ccc([Si](C)(C)[C@H]2[C@H](CC(=O)N3Cc4ccccc4C[C@H]3CO)O[C@@]3(C(=O)N(Cc4ccc(N5CCOC5=O)cc4)c4ccccc43)[C@@H]2C)cc1,inactive,active,inactive
COc1ccc(NC(=O)N(C)C[C@H]2OCCCC[C@H](C)Oc3ccc(NC(=O)Nc4ccc(C(F)(F)F)cc4)cc3C(=O)N([C@H](C)CO)C[C@@H]2C)cc1,inactive,inactive,inactive
Cc1ccc(S(=O)(=O)Nc2ccc3c(c2)C(=O)N([C@@H](C)CO)C[C@H](C)[C@@H](CN(C)Cc2ccc(Cl)c(Cl)c2)O3)cc1,active,inactive,inactive
COCC(=O)N1CC[C@]2(CC1)CN([C@H](CO)c1[nH]c3cc(ccc3c12)OC)C(=O)Nc1ccccc1F,inactive,inactive,inactive
C[C@@H]1CN([C@@H](C)CO)C(=O)c2cc(NC(=O)NC3CCCCC3)ccc2O[C@@H](C)CCCCO[C@H]1CN(C)S(=O)(=O)c1ccccc1,inactive,inactive,inactive
COc1ccc(CN(C)C[C@H]2OCCCC[C@@H](C)Oc3ccc(NS(=O)(=O)c4ccc(F)cc4)cc3C(=O)N([C@H](C)CO)C[C@H]2C)cc1,inactive,inactive,inactive
Cc1noc(C)c1NC(=O)Nc1ccc2c(c1)C(=O)N([C@H](C)CO)C[C@H](C)[C@H](CN(C)CC1CC1)OCCCC[C@H](C)O2,inactive,inactive,inactive
O=C(C[C@H]1CC[C@H](NC(=O)C2CC2)[C@@H](CO)O1)NCCCN1CCOCC1,inactive,inactive,inactive

SMILES,cytotoxicity call (HSkMC),cytotoxicity call (HepG2),growth inhibition call (S. aureus RN4220)
Cc1noc(C)c1S(=O)(=O)Nc1ccc2c(c1)C(=O)N([C@H](C)CO)C[C@H](C)[C@H](CN(C)Cc1ccc(Oc3ccccc3)cc1)O2,inactive,inactive,inactive
Cc1ccc(S(=O)(=O)Nc2cccc3c2O[C@H](CN(C)Cc2ccc(-c4ccccc4)cc2)[C@H](C)CN([C@H](C)CO)C3=O)cc1,inactive,active,inactive
C[C@@H]1CCCCO[C@H](CN(C)Cc2ccccc2)[C@H](C)CN([C@H](C)CO)C(=O)c2cc(NC(=O)Nc3ccc4c(c3)OCO4)ccc2O1,inactive,inactive,inactive
C[C@@H]1CN([C@H](C)CO)C(=O)Cc2cc(NS(=O)(=O)c3cn(C)cn3)ccc2O[C@H]1CN(C)S(=O)(=O)c1cccs1,inactive,inactive,inactive
C[C@H]1CN([C@@H](C)CO)C(=O)Cc2cc(NC(=O)Nc3cccc4ccccc34)ccc2O[C@H]1CN(C)C(=O)Nc1ccc(C(F)(F)F)cc1,inactive,inactive,inactive
CC(=O)NC(Cc1ccccc1)C(=O)O (stereo not given),inactive,inactive,inactive
COc1ccc(S(=O)(=O)N(C)C[C@H]2Oc3ccc(NS(=O)(=O)c4cccs4)cc3CC(=O)N([C@H](C)CO)C[C@H]2C)cc1,inactive,inactive,inactive
C[C@@H]1CN([C@@H](C)CO)C(=O)c2cc(NS(=O)(=O)c3ccccc3)ccc2O[C@H]1CN(C)Cc1ccc(Cl)c(Cl)c1,inactive,inactive,inactive
C[C@H](CO)N1C[C@H](C)[C@H](CN(C)C(=O)c2ccncc2)Oc2ncc(-c3ccc(C(=O)N(C)C)cc3)cc2C1=O,inactive,inactive,inactive
C[C@H]1CN([C@@H](C)CO)C(=O)c2cc(NC(=O)Cn3cnnn3)ccc2O[C@@H]1CN(C)C(=O)Nc1cccc2ccccc12,inactive,inactive,inactive
NCc1cc2ccccc2s1,inactive,inactive,inactive
C[C@@H]1CN([C@H](C)CO)C(=O)c2cc(NC(=O)CCC(F)(F)F)ccc2O[C@@H](C)CCCCO[C@@H]1CN(C)C(=O)Cc1ccccc1,inactive,inactive,inactive
C[C@@H]1CN([C@@H](C)CO)C(=O)Cc2cc(NC(=O)Nc3ccc(C(F)(F)F)cc3)ccc2O[C@H]1CN(C)Cc1ccc2c(c1)OCO2,inactive,active,inactive
Cc1noc(C)c1S(=O)(=O)Nc1ccc2c(c1)C(=O)N([C@@H](C)CO)C[C@H](C)[C@H](CN(C)C(=O)NC1CCCCC1)O2,inactive,inactive,inactive
C[C@@H]1CN([C@@H](C)CO)C(=O)c2cccc(NC(=O)CCCCCC(=O)Nc3ccccc3N)c2O[C@@H]1CN(C)C(=O)Nc1cccc2ccccc12,inactive,inactive,inactive
CCCC1CCC(c2ccc(OC(=O)c3ccco3)cc2)CC1 (stereo not given),inactive,inactive,inactive
Cc1ccccc1-c1ncc(-c2ccc(Br)cc2)o1,inactive,inactive,inactive
Cc1ccc2c(c1)[C@@]1(CC(=O)N(Cc3ccccc3)C1=O)C(=O)N2CCCn1c(=O)c2c(ncn2C)n(C)c1=O,inactive,inactive,inactive
CS(=O)(=O)Nc1ccc2c(c1)[C@@H]1C[C@@H](CC(=O)NCC3CC3)O[C@@H](CO)[C@@H]1O2,inactive,inactive,inactive
COc1ccc(S(=O)(=O)Nc2ccc3c(c2)C(=O)N([C@H](C)CO)C[C@H](C)[C@@H](CN(C)C(=O)Nc2c(C)noc2C)OCCCC[C@@H](C)O3)cc1,inactive,inactive,inactive
C=CCC[C@H](Cc1ccc(F)cc1)C(=O)OC[C@@H](NC(=O)[C@@H](CC=C)CC(=O)N[C@@H](CO)Cc1ccccc1)C(C)(C)C,inactive,active,inactive
C[C@H](CO)N1C[C@H](C)[C@H](CN(C)Cc2ccc3c(c2)OCO3)Oc2cc(C#CCN(C)C)ccc2S1(=O)=O,inactive,inactive,inactive
CC12CCC(=O)C=C1CCC1C2C(O)CC2(C)C1CCC2(O)C(=O)CO (stereo not given),inactive,inactive,inactive
C[C@@H]1CCCCO[C@H](CN(C)S(=O)(=O)c2cccs2)[C@H](C)CN([C@@H](C)CO)C(=O)c2cc(NC(=O)NC3CCCCC3)ccc2O1,inactive,inactive,inactive
Cc1noc(C)c1S(=O)(=O)N(C)C[C@H]1Oc2ccc(NS(=O)(=O)c3ccc(F)cc3)cc2CC(=O)N([C@@H](C)CO)C[C@@H]1C,inactive,inactive,inactive
C[C@H](CO)N1C[C@H](C)[C@@H](CN(C)Cc2ccc(C(=O)Nc3ccccc3N)cc2)Oc2ccc(NC(=O)Cn3cnnn3)cc2C1=O,inactive,inactive,inactive
COc1ccc(S(=O)(=O)N(C)C[C@@H]2Oc3ccc(NC(=O)CCCN(C)C)cc3C(=O)N([C@H](C)CO)C[C@@H]2C)cc1,inactive,inactive,inactive
